In the supplement of paper PMC11417369:
This is one part of the list.

tested on: PfAP2-HC AP2 domain (GST-tagged); assay: gcPBM binding intensity (ln(normalized median fluorescence intensity)); higher = stronger DNA binding
In short: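 For binding intensity, the highest Masliner-normalised natural-log median intensity across replicate spots of either probe orientation was taken. Protein bound to the array was stained with Alexa488 anti-GST antibody and scanned at 488 nm. The protein, GST-tagged P. falciparum DNA-binding domains from E. coli at about 25 μg on average, had been applied for 1 h to an Agilent 4 × 180k array of primer-extended double-stranded 36-bp intergenic genomic probes and negative controls.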

Sequence	gcPBM binding intensity (ln)
CTGAAAAAAAAGCTTGCACACGTATTTGCTTTATGT [CACACA_site8427]	10
TTACTTATAAATAAATATACAAAAATGTTATATATA [XGTACX_negctrl_site223]	9.39
TTTTTTTTTTTTTGCACACACATTGAATTATTATTC [CACACA_site197]	10.2
ATAAGAAAATATAAAATGCACACTATAAATTGTATA [CACACA_site143]	9.84
TATATAGAGAGATATGCACACTGTATGAATGCCCCC [CACACA_site5476]	10.1
TATACCTATATACATACATGCAAATATATATTCATA [TGCATGCA_site269]	9.63
TTGTAAAACTTATAATGTACATTTTTTTTTTTTTTT [XGTACX_site5398]	9.47
AGGGACATCTATATCACACACAAAAATTAGTCCCTT [CACACA_site7330]	9.88
TATTTCTGATTACATACACACATATACAGATATGAC [CACACA_site7490]	9.77
TATATACCTATATACACACACATATATAAATAAATA [CACACA_site7341]	10.1
TTTACCTCTTCAATGGTGCAATAACTCAAAAATTTG	9.46
TTTTTATTTTATTAGTGTACTTTATATTTAACAATA [XGTACX_site1175]	9.64
AAAAAAAAAAAAAGTACACACATACCTATAAATATA [CACACA_site6937]	10.5
ATAAATAAAATAAAAGCACACAAAATGTAAATAATT [CACACA_site8895]	10.2
TTTATATACATTTTAAATTTTAATGTAACCCATGGG [TGCATGCA_negctrl_site115]	9.23
TATATATTTATAAATGAACACACACCCAATTTGAAT [CACACA_site9113]	10.8
TTTATTTTTATAAGAGCATGCACTGTTTAAAATGGT [TGCATGCA_site628]	9.37
TTATATATAATATATACACACACATGTATATATAAA [CACACA_site8603]	9.94
TATGTTCCATTTTTTGGTACACATACAATAACTGCT [XGTACX_site2256]	9.55

Sequence	gcPBM binding intensity (ln)
ATTACATACGAGCACACGTAAAAGTATAATATAAAA [GTGCAC_negctrl_site446]	9.79
TTTGTATTGTGCAGATGTACATTATAATATTGGATT [XGTACX_site5033]	9.59
AACAAATACAAAGAATAGTCATCTGAATGGTGTTAT [GTGCAC_negctrl_site685]	9.98
AAATTAATAAGTCACACACACATATATAATATATAT [CACACA_site799]	10.4
AATATATACATTTATATACACACCTATATATATATA [CACACA_site1972]	9.83
GTTATATGTTATATATATATATATATATATATATAT [TGCATGCA_negctrl_site428]	9.86
AGCATCATTTTACACACATGCAAATGTAAAATAGGA [TGCATGCA_site460]	9.83
CATATACATATATGTAGTACGTGTTCTTCTATATGA [XGTACX_site8344]	9.69
TACATATACAGACACACACACACACCCCCACAAAAA [CACACA_site495]	10.8
ATTAATATGAAACGATTATAAGAAAGAAAAGAAATG [GTGCAC_negctrl_site701]	9.7
AAATTGAATTAGTTAACACACAACTTTTATTTCATA [CACACA_site2840]	9.73
TATATATATTTATGTACACACATCAATCATATTAAC [CACACA_site5127]	9.88
ATAAAGATTAATTCAAGTACACATCAAATACTACAA [XGTACX_site8794]	9.88
TGTATACATTCTGAATGTACGGAACACCTCATAACT [XGTACX_site7240]	9.56
TTTGTAATAAATAAGAGTACAAGTATGGTTCCACTA [XGTACX_site2579]	9.67
TATTTATTGTGACACTTATATTATTTTATGATTAAA [CACACA_negctrl_site525]	9.58
AATAATACATCCTTAGTGCAGAAATAAAAATTAAGC [GTGCAC_site9955]	9.74
TATAAAATGATGATATGTACTTATGTAGTTTTTTTA [XGTACX_site8711]	9.59
TTTTCATTTGTGACAGTGCAAAATGTTATATTAAAA [GTGCAC_site9647]	9.42

Sequence	gcPBM binding intensity (ln)
AATATATGGTTTCATGATATTAAATTCAAAATAATG [CACACA_negctrl_site318]	9.54
CATATATATTTTATTTGTACGTATAAAAAAACAAAA [XGTACX_site4253]	9.51
ATATGAAAAAGAACTTGTACTAAAGTGGCATATTAT [XGTACX_site8520]	9.77
TAAATACTTGTATATAGTACAAGTTGTTTTTTTTAA [XGTACX_site5643]	9.35
AAAAAAAAAAAAAACACACACATATAAATATAAATA [CACACA_site6972]	10.4
TGGAACCTTTAAAATACACACCCAAATCCTTTGAAA [CACACA_site7671]	9.79
ATTATTTGAAACTATTGTACATTTAAAAACATTTTT [XGTACX_site4896]	9.46
ATTGGACTATAAATAGGTACACATATATATATATAT [XGTACX_site7562]	10.3
TCATATATTCAAAAATTTAAAGTTAATAAAACTTGA [CACACA_negctrl_site1546]	9.06
TTATATTATGTTCAATCAAAAATTATTTTTAAAAAA [XGTACX_negctrl_site595]	8.98
AATGTGTTTTTTTTTTTTTTTTTTTTCAATCTCTAT [CACACA_negctrl_site794]	9.49
GAAAAAAGAAAAAAAAGTACACACATGTATATTAAT [XGTACX_site5265]	9.87
AATGTACACCCACCCACACACAAACAAATATATATA [CACACA_site5521]	10.3
TTTTTGTTTGAACACTGTACGTATAAATATAAAAGT [XGTACX_site6476]	9.54
TTTCAAATTTAATACACACACAAGTATATATTTATC [CACACA_site3947]	9.88
TTGTGTTATCACACGAAGGGGATAAGACATAAATGT [TGCATGCA_negctrl_site368]	9.58
TATATATAAAAACACACACACACACCCTATAATTAT [CACACA_site4063]	11.3
TAAGACAATAAATGCTGTACAATTGAATATCTTGGA [XGTACX_site636]	9.64
